Reference: a collection of fitness landscapes (doi:10.1016/j.celrep.2020.107928)
The full ranking holds about 81,000 sequences; the median of “one-hybrid fitness for binding parS DNA” is about -0.17, and the highest 2% start at about 0.51. The list shows a part of the results.

B1: Caulobacter ParB omega fusion; a variant is named by its letters at X, in order, B8GW30 (parent)
chain: MESVVVGEPGMSEGRRGLGRGLSALLGEVDAAPAQAPGEQLGGSREAPIEILQRNPDQPRRTFREEDLEDLSNSIREKGVLQPILVRPSPDTAGEYQIVAGERAWRAAQRAGLKTVPIMVRELDDLAVLEIGIIENVQRADLNVLEEALSYKVLMEKFERTQENIAQTIGKSXSHVANXMRLLXLPDEVQSYLVSGELTAXHARAIAAAADPVALAKQIIEGGLSVRETEALARKAPNLSAGKSKGGRPPRVKDTDTQALESDLSSVLGLDVSIDHRGSTGTLTITYATLEQLDDLCNRLTRGI

Variants of: B1
Assay: one-hybrid fitness for binding parS DNA (scaled: cognate 1, non-cognate 0); higher = stronger binding
Conditions: with parS DNA site
In short: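 Fitness is the rescaled log change in variant-to-wild-type read ratio, measured by Illumina sequencing of plasmids before and after bacterial one-hybrid selection. The scale puts cognate at 1 and non-cognate at 0. Selection of Caulobacter ParB libraries, four specificity codons randomised, took place in E. coli USO with a HIS3 reporter, site 19 bp from the promoter, over 48 hours at 37°C on M9-minus-histidine with 0.1 mM IPTG and 5 mM 3-AT.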

Point of comparison: FHCG, “one-hybrid fitness for binding parS DNA” value 0.206. Against it:
- QPGQ — lower, ≤ 0.2
- CLIG — lower, ≤ 0.2
- VNRC — lower, ≤ 0.2
- VSCR — lower, ≤ 0.2
- DIYR — lower, ≤ 0.2
- MCAR — lower, ≤ 0.2
- SNGY — lower, ≤ 0.2
- GNNV — lower, ≤ 0.2
- PFVW — lower, ≤ 0.2
- QYEG — lower, ≤ 0.2
- RKTK — lower, ≤ 0.2
- AAGL — lower, ≤ 0.2
- MMKR — lower, ≤ 0.2
- RWNN — higher, 0.355
- DWSP — lower, ≤ 0.2
- EVQR — lower, ≤ 0.2
- RESS — higher, 0.306
- KGHV — lower, ≤ 0.2
- PVGC — lower, ≤ 0.2
- DAIC — lower, ≤ 0.2
- PSTH — lower, ≤ 0.2
- KSYR — lower, ≤ 0.2
- HCKD — lower, ≤ 0.2
- VSVG — lower, ≤ 0.2
- VRPS — lower, ≤ 0.2
- PAPQ — lower, ≤ 0.2
- CCKA — lower, ≤ 0.2
- HARM — lower, ≤ 0.2
- SIVN — lower, ≤ 0.2
- DENT — lower, ≤ 0.2
- AFDC — lower, ≤ 0.2
- AGPT — lower, ≤ 0.2
- MYQW — lower, ≤ 0.2
- RSMW — lower, ≤ 0.2
- QTAH — lower, ≤ 0.2
- MVCC — lower, ≤ 0.2
- VCKS — lower, ≤ 0.2
- TCNV — lower, ≤ 0.2
- IWTS — lower, ≤ 0.2
- VRAW — lower, ≤ 0.2
- KRMH — lower, ≤ 0.2
- GRKV — lower, ≤ 0.2
- RAFF — higher, 0.249
- ACRA — lower, ≤ 0.2
- VSLC — lower, ≤ 0.2
- LACS — lower, ≤ 0.2
- PKAG — lower, ≤ 0.2
- PMDG — lower, ≤ 0.2
- EVTM — lower, ≤ 0.2
- RVVY — higher, 0.413
- DYKR — lower, ≤ 0.2
- HTSM — lower, ≤ 0.2
- HFSL — lower, ≤ 0.2
- SMLC — lower, ≤ 0.2
- YIYG — lower, ≤ 0.2
- SATM — lower, ≤ 0.2
- RYNH — lower, ≤ 0.2
- EHSS — lower, ≤ 0.2
- MPRR — lower, ≤ 0.2
- TVIM — lower, ≤ 0.2
- NATV — lower, ≤ 0.2
- MCVM — lower, ≤ 0.2
- MPNT — lower, ≤ 0.2
- YAMG — lower, ≤ 0.2
- GQLG — lower, ≤ 0.2
- KNCS — lower, ≤ 0.2
- KAYW — lower, ≤ 0.2
- RKKD — lower, ≤ 0.2
- RWPG — higher, 0.406
- SYHM — lower, ≤ 0.2
- GEMK — lower, ≤ 0.2
- PHYI — lower, ≤ 0.2
- MSVP — lower, ≤ 0.2
- WSME — lower, ≤ 0.2
- WATT — lower, ≤ 0.2
- SSCG — lower, ≤ 0.2
- GMKR — lower, ≤ 0.2
- RVKD — lower, ≤ 0.2
- VDML — lower, ≤ 0.2
- YLVC — lower, ≤ 0.2
- PHTK — lower, ≤ 0.2
- TPYR — lower, ≤ 0.2
- RINF — lower, 0.201
- TMPS — lower, ≤ 0.2
- LYRG — lower, ≤ 0.2
- RPTR — lower, ≤ 0.2
- NRFE — lower, ≤ 0.2
- KVDG — lower, ≤ 0.2
- PYAF — lower, ≤ 0.2
- TDPN — lower, ≤ 0.2
- KRCR — lower, ≤ 0.2
- QKGT — lower, ≤ 0.2
- AQMC — lower, ≤ 0.2
- RAVT — higher, 0.77
- YFVV — lower, ≤ 0.2
- PTVF — lower, ≤ 0.2
- ATLI — lower, ≤ 0.2
- AQPR — lower, ≤ 0.2
- VWAN — lower, ≤ 0.2
- ARCH — lower, ≤ 0.2
- GPKV — lower, ≤ 0.2
- MLGL — lower, ≤ 0.2
- VPLE — lower, ≤ 0.2
- NFDM — lower, ≤ 0.2
- IYIT — lower, ≤ 0.2
- PRQG — lower, ≤ 0.2
- MSEE — lower, ≤ 0.2
- ASWG — lower, ≤ 0.2
- IHTP — lower, ≤ 0.2
- THQK — lower, ≤ 0.2
- LGYC — lower, ≤ 0.2
- EYKT — lower, ≤ 0.2
- PAPM — lower, ≤ 0.2
- RHNT — higher, 0.857
- NTVP — lower, ≤ 0.2
- GPLL — lower, ≤ 0.2
- VVPR — lower, ≤ 0.2
- LVRK — lower, ≤ 0.2
- DSVW — lower, ≤ 0.2
- MQTS — lower, ≤ 0.2
- PWIG — lower, ≤ 0.2
- LKWG — lower, ≤ 0.2
- QESS — lower, ≤ 0.2
- PGYI — lower, ≤ 0.2
- YANT — lower, ≤ 0.2
- IILS — lower, ≤ 0.2
- NPRT — lower, ≤ 0.2
- AVLR — lower, ≤ 0.2
- PAPN — lower, ≤ 0.2
- DITM — lower, ≤ 0.2
- SLTH — lower, ≤ 0.2
- WMVG — lower, ≤ 0.2
- YHKR — lower, ≤ 0.2
- SEEG — lower, ≤ 0.2
- CTTI — lower, ≤ 0.2
- SNDI — lower, ≤ 0.2
- EIMC — lower, ≤ 0.2
- QGPI — lower, ≤ 0.2
- ANEK — lower, ≤ 0.2
- NLMG — lower, ≤ 0.2
- TVWH — lower, ≤ 0.2
- ADDM — lower, ≤ 0.2
- VTAL — lower, ≤ 0.2
- QSTP — lower, ≤ 0.2
- YAKV — lower, ≤ 0.2
- KKVR — lower, ≤ 0.2
- YRSY — lower, ≤ 0.2
- APKQ — lower, ≤ 0.2
- EYFF — lower, ≤ 0.2
- RPYM — lower, ≤ 0.2
- QTMH — lower, ≤ 0.2
- AMSM — lower, ≤ 0.2
- LGCS — lower, ≤ 0.2
- PFVV — lower, ≤ 0.2
- FALI — lower, ≤ 0.2
- QIWA — lower, ≤ 0.2
- RHCC — higher, 0.869
- DRHK — lower, ≤ 0.2
- VVYT — lower, ≤ 0.2
- VSSM — lower, ≤ 0.2
- PGLF — lower, ≤ 0.2
- KEPK — lower, ≤ 0.2
- NGFT — lower, ≤ 0.2
- SVLG — lower, ≤ 0.2
- PMWM — lower, ≤ 0.2
- GAVD — lower, ≤ 0.2
- MKNR — lower, ≤ 0.2
- EQLL — lower, ≤ 0.2
- ETQL — lower, ≤ 0.2
- SWEW — lower, ≤ 0.2
- SFPP — lower, ≤ 0.2
- AHDC — lower, ≤ 0.2
- HWAA — lower, ≤ 0.2
- TMRA — lower, ≤ 0.2
- RDLI — lower, ≤ 0.2
- VAVR — lower, ≤ 0.2
- VTTM — lower, ≤ 0.2
- SWCC — lower, ≤ 0.2
- QRSY — lower, ≤ 0.2
- CDKR — lower, ≤ 0.2
- HRVF — lower, ≤ 0.2
- QQRD — lower, ≤ 0.2
- PSTG — lower, ≤ 0.2
- LSCI — lower, ≤ 0.2
- TVDW — lower, ≤ 0.2
- NHAR — lower, ≤ 0.2
- CTDR — lower, ≤ 0.2
- GKRL — lower, ≤ 0.2
- MDKR — lower, ≤ 0.2
- QLVG — lower, ≤ 0.2
- IFKD — lower, ≤ 0.2
- LLVI — lower, ≤ 0.2
- WSFT — lower, ≤ 0.2
- LPAI — lower, ≤ 0.2
